This passage reports binding results from PMC5735038.

The chains behind the UniProt entries cited, without tags or fusion partners.
UniProt Q9CQJ4: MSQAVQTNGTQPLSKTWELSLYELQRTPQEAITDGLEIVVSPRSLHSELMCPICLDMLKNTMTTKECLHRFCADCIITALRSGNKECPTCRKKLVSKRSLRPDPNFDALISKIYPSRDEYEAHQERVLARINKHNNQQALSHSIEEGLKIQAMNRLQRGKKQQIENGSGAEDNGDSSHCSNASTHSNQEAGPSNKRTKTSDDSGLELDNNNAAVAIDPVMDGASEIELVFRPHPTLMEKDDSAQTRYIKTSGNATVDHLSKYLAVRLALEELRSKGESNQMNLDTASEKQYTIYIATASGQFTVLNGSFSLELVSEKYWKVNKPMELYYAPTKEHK
UniProt Q61188: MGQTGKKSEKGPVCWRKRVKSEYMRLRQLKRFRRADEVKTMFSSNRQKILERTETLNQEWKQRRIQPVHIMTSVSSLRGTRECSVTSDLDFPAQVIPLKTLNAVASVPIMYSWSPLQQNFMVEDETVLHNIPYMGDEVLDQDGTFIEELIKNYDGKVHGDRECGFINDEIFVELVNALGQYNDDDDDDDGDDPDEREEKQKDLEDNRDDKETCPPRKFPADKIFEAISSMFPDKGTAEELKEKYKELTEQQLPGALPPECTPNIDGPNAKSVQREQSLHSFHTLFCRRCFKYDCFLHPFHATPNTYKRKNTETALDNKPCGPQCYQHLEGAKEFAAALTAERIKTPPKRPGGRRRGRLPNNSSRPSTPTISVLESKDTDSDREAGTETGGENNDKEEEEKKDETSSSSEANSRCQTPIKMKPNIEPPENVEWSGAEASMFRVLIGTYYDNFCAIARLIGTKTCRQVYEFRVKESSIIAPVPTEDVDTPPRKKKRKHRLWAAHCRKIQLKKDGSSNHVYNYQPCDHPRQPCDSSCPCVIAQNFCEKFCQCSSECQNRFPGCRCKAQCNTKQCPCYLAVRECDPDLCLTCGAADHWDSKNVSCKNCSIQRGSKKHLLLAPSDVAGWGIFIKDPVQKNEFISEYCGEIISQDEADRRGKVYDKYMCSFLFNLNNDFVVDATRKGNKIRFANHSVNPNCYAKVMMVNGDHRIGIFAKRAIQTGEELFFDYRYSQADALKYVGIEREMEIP
UniProt Q3UK78: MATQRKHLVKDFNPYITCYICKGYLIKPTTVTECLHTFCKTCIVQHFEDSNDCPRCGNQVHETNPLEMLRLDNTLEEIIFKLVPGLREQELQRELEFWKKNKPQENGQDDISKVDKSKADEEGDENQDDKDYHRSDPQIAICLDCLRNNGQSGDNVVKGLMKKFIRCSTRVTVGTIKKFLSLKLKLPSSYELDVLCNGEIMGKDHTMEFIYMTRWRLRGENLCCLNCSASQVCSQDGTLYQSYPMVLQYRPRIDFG

For assay [1], the target named is eGFP-hnRNPK (mouse (129S1 cDNA)) (UniProt P61979). The assay can be described thus: co-IP; GFP nanobodies on Dynabeads; 500 ug nuclear extract of mESCs stably expressing eGFP-hnRNPK, 150 mM NaCl, treated with Benzonase, 4°C overnight; washes with 150 mM and 450 mM NaCl; western blot. (In general: A western blot detects proteins with antibodies after separation by electrophoresis.)

Another assay addresses GST-hnRNPK (mouse) (UniProt P61979). The assay can be described thus: pull-down; 30 ug each of PRC1 complex and GST-hnRNPK mixed overnight at 4°C, then Glutathione Sepharose beads 2 hr at 4°C; 20 mM HEPES, 300 mM NaCl, 5% glycerol, 0.1% Triton X-100, 250 mM sucrose, 2 mM β-mercaptoethanol; elution with 10 mM reduced glutathione; western blot; both purified.
Another assay deals with T1, PCGF3 C-term His/Flag (UniProt Q8BTQ0).
T1 sequence: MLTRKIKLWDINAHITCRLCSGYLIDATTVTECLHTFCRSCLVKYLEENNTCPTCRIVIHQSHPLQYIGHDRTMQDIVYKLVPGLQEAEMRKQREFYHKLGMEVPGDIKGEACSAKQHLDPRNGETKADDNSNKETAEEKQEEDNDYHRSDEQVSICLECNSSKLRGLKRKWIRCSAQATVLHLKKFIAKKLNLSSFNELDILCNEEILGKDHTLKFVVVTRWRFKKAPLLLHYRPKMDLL
The assay can be described thus: co-purification (nickel affinity chromatography and gel filtration); subunits co-expressed in E. coli ArcticExpress DE3 from psT44, one subunit His-tagged; Ni Sepharose (500 mM NaCl), then Superdex 200 Increase (20 mM HEPES pH7.5, 5% glycerol, 300 mM NaCl). On the technique in general: Size exclusion chromatography separates by hydrodynamic size, large species first.

The next assay has as its target RING1B C-term His/Strep (UniProt Q9CQJ4). The assay is described as above.

These are yes or no findings as the source states them, for the method shown. For some assays here: Binding seen in cells or lysates may run through a third protein. Some results given as binding are weak or reduced against the parent protein; the word gives no strength. For some assays here: Tags and fused reporters may be left off the sequences shown.

EED (from UniProt Q921E6 1-441): the binding entry in assay [1] was “no binding”. On the same count and under the same terms, as for EZH2 (from UniProt Q61188 1-746), the entry is “no binding”; as for PCGF5 (from UniProt Q3UK78 1-256), “binds”. In the case of “PCGF6-PRC1 (RING1B C-term His/Strep, RYBP, PCGF6) (from UniProt Q9CQJ4 1-336; Q8CCI5 1-228; Q99NA9 1-353) (complex)”, the binding result with GST-hnRNPK (mouse) was “no binding”.

Regarding “RING1B (recombinant, subunit of PRC1.3) (from UniProt Q9CQJ4 1-336)”, in the assay with PCGF3 C-term His/Flag, the binding result is on record as “binds”. “PCGF2-PRC1 (RING1B C-term His/Strep, RYBP, PCGF2) (from UniProt Q9CQJ4 1-336; Q8CCI5 1-228; P23798 1-342) (complex)”: the binding entry with GST-hnRNPK (mouse) was “no binding”. Same read-out and setting: as for “PCGF3-PRC1 (RING1B, RYBP, PCGF3 C-term His/Flag) (from UniProt Q9CQJ4 1-336; Q8CCI5 1-228; Q8BTQ0 1-241) (complex)”, the entry is “binds”.

B1: PCGF2 (recombinant) (protein, UniProt P23798 1-342)
chain: MHRTTRIKITELNPHLMCALCGGYFIDATTIVECLHSFCKTCIVRYLETNKYCPMCDVQVHKTRPLLSIRSDKTLQDIVYKLVPGLFKDEMKRRRDFYAAYPLTEVPNGSNEDRGEVLEQEKGALGDDEIVSLSIEFYEGVRDREEKKNLTENGDGDKEKTGVRFLRCPAAMTVMHLAKFLRNKMDVPSKYKVEILYEDEPLKEYYTLMDIAYIYPWRRNGPLPLKYRVQPACKRLTLPTVPTPSEGTNTSGASECESVSDKAPSPATLPATSSSLPSPATPSHGSPSSHGPPATHPTSPTPPSTAAGTTTATNGGTSNCLQTPSSTSRGRKMTVNGAPCPP
For B1, the binding result with RING1B C-term His/Strep is recorded as “binds”.

B2: PCGF6 (recombinant) (protein, UniProt Q99NA9 1-353)
chain: MDEAETDATENKRASEAKRASAMPPPPPPPPPISPPALIPAPAAGEEGPASLGQAGAAGCSRSRPPALEPERSLGRLRGRFEDYDEELEEEEEMEEEEEEEEEMSHFSLRLESGRADSEDEEERLINLVELTPYILCSICKGYLIDATTITECLHTFCKSCIVRHFYYSNRCPKCNIVVHQTQPLYNIRLDRQLQDIVYKLVINLEEREKKQMHDFYKERGLEVPKPAAPQPVPSSKGKTKKVLESVFRIPPELDMSLLLEFIGANEDTGHFKPLEKKFVRVSGEATIGHVEKFLRRKMGLDPACQVDIICGDHLLERYQTLREIRRAIGDTAMQDGLLVLHYGLVVSPLKIT
For the molecule B2, the binding result in the assay with RING1B C-term His/Strep was “binds”.

B3: RYBP (recombinant) (protein, UniProt Q8CCI5 1-228)
chain: MTMGDKKSPTRPKRQAKPAADEGFWDCSVCTFRNSAEAFKCSICDVRKGTSTRKPRINSQLVAQQVAQQYATPPPPKKEKKEKVEKPDKEKPEKDKDISPSVTKKNTNKKTKPKSDILKDPPSEANSIQSANATTKTSETNHTSRPRLKNVDRSTAQQLAVTVGNVTVIITDFKEKTRSSSTSSSTVTSSAGSEQQNQSSSGSESTDKGSSRSSTPKGDMSAVNDESF
Regarding B3, the binding result with RING1B C-term His/Strep and in the assay with PCGF3 C-term His/Flag was “binds” throughout.
